Drawing on paper PMC4216074, this text covers binding for two molecules.

Protein sequences, listed by entry. Tags and fused reporters are not part of them.
UniProt P46937: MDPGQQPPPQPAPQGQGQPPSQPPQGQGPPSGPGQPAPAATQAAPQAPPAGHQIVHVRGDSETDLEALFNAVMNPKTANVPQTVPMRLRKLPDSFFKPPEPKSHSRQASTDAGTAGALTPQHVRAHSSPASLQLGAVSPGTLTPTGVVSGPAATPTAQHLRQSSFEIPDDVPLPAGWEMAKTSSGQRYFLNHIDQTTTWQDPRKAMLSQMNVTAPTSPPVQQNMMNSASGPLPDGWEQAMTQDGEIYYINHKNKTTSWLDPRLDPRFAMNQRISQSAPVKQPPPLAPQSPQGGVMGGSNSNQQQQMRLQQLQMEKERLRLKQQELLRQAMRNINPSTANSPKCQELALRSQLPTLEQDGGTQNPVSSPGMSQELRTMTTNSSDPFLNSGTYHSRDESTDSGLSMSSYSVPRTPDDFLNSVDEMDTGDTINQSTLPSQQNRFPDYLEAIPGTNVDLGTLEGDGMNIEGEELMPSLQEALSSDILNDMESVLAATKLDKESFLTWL

The target of assay [1] is hYAP-myc (human) (UniProt P46937). Kind of assay: co-IP; HEK293 cells co-transfected with YAP and V5-tagged ASPP constructs; exogenous YAP immunoprecipitated with anti-myc 9E10; immunoblot.
The target in assay [2] is hYAP-myc (human), P46937. Described as above. The note with it: remark: other sources report otherwise.

These are yes or no findings as the source states them, for the method shown. Binding seen in cells or lysates may run through a third protein. Tags and fused reporters may be left off the sequences shown.

B1: iASPP-V5 (protein, UniProt Q8WUF5 1-828)
chain: MDSEAFQSARDFLDMNFQSLAMKHMDLKQMELDTAAAKVDELTKQLESLWSDSPAPPGPQAGPPSRPPRYSSSSIPEPFGSRGSPRKAATDGADTPFGRSESAPTLHPYSPLSPKGRPSSPRTPLYLQPDAYGSLDRATSPRPRAFDGAGSSLGRAPSPRPGPGPLRQQGPPTPFDFLGRAGSPRGSPLAEGPQAFFPERGPSPRPPATAYDAPASAFGSSLLGSGGSAFAPPLRAQDDLTLRRRPPKAWNESDLDVAYEKKPSQTASYERLDVFARPASPSLQLLPWRESSLDGLGGTGKDNLTSATLPRNYKVSPLASDRRSDAGSYRRSLGSAGPSGTLPRSWQPVSRIPMPPSSPQPRGAPRQRPIPLSMIFKLQNAFWEHGASRAMLPGSPLFTRAPPPKLQPQPQPQPQPQSQPQPQLPPQPQTQPQTPTPAPQHPQQTWPPVNEGPPKPPTELEPEPEIEGLLTPVLEAGDVDEGPVARPLSPTRLQPALPPEAQSVPELEEVARVLAEIPRPLKRRGSMEQAPAVALPPTHKKQYQQIISRLFHRHGGPGPGGPEPELSPITEGSEARAGPPAPAPPAPIPPPAPSQSSPPEQPQSMEMRSVLRKAGSPRKARRARLNPLVLLLDAALTGELEVVQQAVKEMNDPSQPNEEGITALHNAICGANYSIVDFLITAGANVNSPDSHGWTPLHCAASCNDTVICMALVQHGAAIFATTLSDGATAFEKCDPYREGYADCATYLADVEQSMGLMNSGAVYALWDYSAEFGDELSFREGESVTVLRRDGPEETDWWWAALHGQEGYVPRNYFGLFPRVKPQRSKV
Turning to B1, the binding result in assay [1] is “no binding”.

B2: ASPP1-V5, Q96KQ4 1-1090 (protein)
chain: MMPMILTVFLSNNEQILTEVPITPETTCRDVVEFCKEPGEGSCHLAEVWRGNERPIPFDHMMYEHLQKWGPRREEVKFFLRHEDSPTENSEQGGRQTQEQRTQRNVINVPGEKRTENGVGNPRVELTLSELQDMAARQQQQIENQQQMLVAKEQRLHFLKQQERRQQQSISENEKLQKLKERVEAQENKLKKIRAMRGQVDYSKIMNGNLSAEIERFSAMFQEKKQEVQTAILRVDQLSQQLEDLKKGKLNGFQSYNGKLTGPAAVELKRLYQELQIRNQLNQEQNSKLQQQKELLNKRNMEVAMMDKRISELRERLYGKKIQLNRVNGTSSPQSPLSTSGRVAAVGPYIQVPSAGSFPVLGDPIKPQSLSIASNAAHGRSKSANDGNWPTLKQNSSSSVKPVQVAGADWKDPSVEGSVKQGTVSSQPVPFSALGPTEKPGIEIGKVPPPIPGVGKQLPPSYGTYPSPTPLGPGSTSSLERRKEGSLPRPSAGLPSRQRPTLLPATGSTPQPGSSQQIQQRISVPPSPTYPPAGPPAFPAGDSKPELPLTVAIRPFLADKGSRPQSPRKGPQTVNSSSIYSMYLQQATPPKNYQPAAHSALNKSVKAVYGKPVLPSGSTSPSPLPFLHGSLSTGTPQPQPPSESTEKEPEQDGPAAPADGSTVESLPRPLSPTKLTPIVHSPLRYQSDADLEALRRKLANAPRPLKKRSSITEPEGPGGPNIQKLLYQRFNTLAGGMEGTPFYQPSPSQDFMGTLADVDNGNTNANGNLEELPPAQPTAPLPAEPAPSSDANDNELPSPEPEELICPQTTHQTAEPAEDNNNNVATVPTTEQIPSPVAEAPSPGEEQVPPAPLPPASHPPATSTNKRTNLKKPNSERTGHGLRVRFNPLALLLDASLEGEFDLVQRIIYEVEDPSKPNDEGITPLHNAVCAGHHHIVKFLLDFGVNVNAADSDGWTPLHCAASCNSVHLCKQLVESGAAIFASTISDIETAADKCEEMEEGYIQCSQFLYGVQEKLGVMNKGVAYALWDYEAQNSDELSFHEGDALTILRRKDESETEWWWARLGDREGYVPKNLLGLYPRIKPRQRTLA
Regarding B2, the binding entry in assay [2] is “no binding”.
